Hit rate of the full screen: of about 46,000 compounds, about 60 (0.1%) were called active. About 3% were inconclusive and are not listed. The call rests on the fitted dose curve; in most records, active means well fitted inhibition curve with a large enough effect; inconclusive means small, poorly fitted or top-dose-only effect; inactive means no such curve, though single readings can be large or run the other way. Some of the results follow.
Experiment: Primary qHTS assay for Inhibitors of ovarian cancer metastasis using an organotypic tumor microenvironment (TME) model. Further: nearly all actives have a fitted effect of over 65% in size.
Details: SKOV3ip1-GFP adhesion/invasion on 3D omental model, fluorescence; series mostly up to 45.8 µM; activity change, negative = inhibition: at the top concentration
Text: PI: Ernst Lengyel MD., Ph.D. Department of Obstetrics and Gynecology, Section of Gynecologic Oncology University of Chicago Medicine, Chicago, Illinois. The tumor microenvironment (TME) is a key determinant of metastatic efficiency. We performed a quantitative high-throughput screen (qHTS) of diverse medicinal chemistry tractable scaffolds (44,420 compounds) and pharmacologically active small molecules (386 compounds) using a layered organotypic, robust assay representing the ovarian cancer metastatic TME. This 3D model contains primary human mesothelial cells, fibroblasts, and extracellular matrix, to which fluorescently labeled ovarian cancer cells are added. Initially, 100 compounds inhibiting ovarian cancer adhesion/invasion to the 3D model in a dose-dependent manner were identified. Of those, eight compounds were confirmed active in five high-grade serous ovarian cancer cell lines and were further validated in secondary in vitro and in vivo biological assays. […] Specifically, NCGC00117362 and PP-121 inhibited ovarian cancer adhesion, invasion, and proliferation, whereas milciclib inhibited ovarian cancer invasion and proliferation. […] To evaluate the clinical potential of NCGC00117362, structure - activity relationship studies were performed. […] The three compounds identified have promise as therapeutics for prevention and treatment of ovarian cancer metastasis.
PROTOCOL TABLE (as described by Inglese J, Shamu CE and Guy RK. 2007) SEQUENCE No. (e.g., 1, 2, 3, etc.); […] (e.g., Cells, Incubation, Reagent, etc.); VALUE; DESCRIPTION. 1; Cells; 4 uL; primary human omental fibroblast, black, clear bottom, low base, 1536-well Aurora assay plate. 2; Incubation; 48 hr; 37C. 3; Cells; 3 uL; 1,200 SKOV3ip1-GFP cells. 4; Compounds; 23nL; acoustic dispenser. 5; Incubation; 2 hr; room temperature. 6; Incubation; 16 hr; 37C. 7; Wash; 5 uL; 1x PBS. 8; Fixing; 5 uL; 4% paraformaldehyde (PFA). 9; Incubation; 15 min; room temperature 10; Wash, 5 uL; 1x PBS. 11; Detection; Fluorescence, excitation filter 488 nm, emission filter 509 nm. NOTES (numbers refer to Sequence numbers above) 1. For the 1,536-well format, 40 primary human omental fibroblasts and 400 mesothelial cells were seeded with 0.02 µg fibronectin and 0.02 µg collagen type I in 4 µL of growth media (2.3 mm2; Supplementary Fig. S1A). 2. Assay plates were incubated for 48 hours at 37 C. 3. After incubation, 1,200 SKOV3ip1-GFP were seeded in 3 µL of serum-free media (growth media minus FBS) on top of primary human omental cells. 4. Compounds or controls were added to each well immediately after the addition of the cancer cells. Compounds were screened in four doses (0.36-46 µmol/L), and the plates contained the positive control (Tomatine) in eight doses (0.035-75 µmol/L) and DMSO (equal volume controls) 5 - 6. The plates were incubated at room temperature for 2 hours and then at 37 degrees C for 16 hours. 7 - 10. Following incubation, the media were aspirated and each well washed with PBS (5 µL) and then fixed with 4% paraformaldehyde (PFA; 5 µL). After 15 minutes, the PFA solution was aspirated, PBS (5 µL) was added. 11. The number of GFP-labeled cells analyzed using a fluorescent cytometer TTP LabTech Acumen eX3 using 488 nm excitation filter and 509 nm emission filter. Data was normalized to the DMSO treated for negative and Tomatine treated wells for positive control. REFERENCES: Inglese J, Shamu CE and Guy RK, Reporting data from high throughput screening of small molecule libraries, Nature Chemical Biology, 2007, 3(8): 438-441. doi.org/10.1038/nchembio0807-438. Yasgar A, Shinn P, Jadhav A, Auld DS, Michael S, Zheng W, Austin CP, Inglese J and Simeonov A, Compound Management for Quantitative High-Throughput Screening. J. Assoc. Lab. Auto., 2008, 13: 79-89. doi: 10.1016/j.jala.2007.12.004.

outcome, inactive:
CCN(CC)c1nn2c(=O)c(C(=O)NCCc3ccccc3)cnc2s1
Fc1ccc(-c2noc3ncnc(N4CCN(c5ccccc5)CC4)c23)cc1
Cc1ccc(CCNC(=O)c2ccc3c(c2)N(Cc2cccc(C)c2)C(=O)c2ccccc2S3(=O)=O)cc1
CC(C)c1ccc(NC(=O)c2cc3c(s2)-c2ccccc2SC3)cc1
COCCc1nn2c(=O)cc(COC(=O)c3ccc4c(c3)OCO4)nc2s1
CCS(=O)(=O)N1CCc2cc(C(=O)NCc3ccc(OC)cc3)ccc21
Cc1ccc(C)c(N2CCN(C(=O)C3CCN(c4nc(-c5ccc(C(C)C)cc5)no4)CC3)CC2)c1
CC(C(=O)Nc1cccc(C#N)c1)n1nc(-c2ccccc2)c2c(c1=O)CCCC2 (centres undefined)
CCOc1ccc(C2CC(=O)n3nc(-c4ccc(C)cc4)nc3S2)cc1OC (centres undefined)
O=C(CN1CCN(S(=O)(=O)c2cc(Cl)ccc2Cl)CC1)Nc1cccc(F)c1
O=C(Nc1ccc(NC(=O)c2cc3ccccc3o2)cc1)c1ccccc1
O=C(Nc1ccc(Cl)cc1Cl)c1cc(S(=O)(=O)N2CCN(c3ccccc3F)CC2)ccc1F
Cc1ccc(-c2cc3ncc(C(=O)c4cc([N+](=O)[O-])ccc4O)cn3n2)cc1
CCc1ccc(-n2c(C)nnc2SCc2nc(-c3ccc(OC)cc3)no2)cc1
CN(Cc1ccccc1)c1nc(-c2ccc(F)cc2)cc(C(F)(F)F)n1
CCCCN(C)CCNC(=O)c1cc(-c2cccnc2)nc2ccc(S(=O)(=O)N3CCC(C)CC3)cc12
COc1ccc(Br)cc1CNC(=O)CCCn1c(=O)c2cccn2c2ccccc21
COc1cc(NC(=O)c2noc3c2CCc2ccccc2-3)cc(OC)c1OC
CCCN(CCC)C(=O)Cn1c(=O)n(Cc2ccc(C(=O)NCCc3ccc(OC)c(OC)c3)cc2)c(=O)c2ccccc21

Activity change, negative = inhibition, inactive:
Cc1cc2c(cc1S(=O)(=O)NCc1ccccc1Cl)OCCN2C 6.97%
O=C(NCc1ccc(F)cc1)c1ccc2c(Cl)c3c(nc2c1)CCCC3 5.77%
COc1ccc(S(=O)(=O)N2CCN(c3ccccc3F)CC2)cc1-c1noc(C)n1 -0.639%
CCOC(=O)c1c(-c2ccccc2)oc2ccc(N(C(C)=O)S(=O)(=O)c3cc(C)ccc3C)cc12 13.7%
Cc1cc(C)cc(NC(=O)N2CCC(N3CCCCC3)CC2)c1 2.58%
CCOC(=O)c1[nH]c(C)c(CCC(=O)NCc2ccccc2)c1C 9.38%
COc1ccc(OC)c(NC(=O)Cc2coc3ccc(C(C)C)cc23)c1 -28.3%
COc1ccc(NC(=O)C2CCN(S(=O)(=O)c3ccc4[nH]c(=O)ccc4c3)CC2)c(OC)c1 7.77%
Cc1cn2c(=O)cc(COc3cccc(NC(=O)c4ccccc4C)c3)nc2s1 8.62%
CC(=O)N1CCOc2cc(S(=O)(=O)Nc3cccc(C(F)(F)F)c3)c(Cl)cc21 3.96%
CCc1cccc(-n2c(C)nc3c(cnn3-c3ccc(Cl)cc3)c2=O)c1 -27.6%
CCOC(=O)c1ccccc1NC(=O)C(=O)Nc1ccc2nc3n(c(=O)c2c1)CCCCC3 -5.64%
CCc1c(C)nc(SCC(=O)N2CCN(c3ccccc3OC)CC2)[nH]c1=O -12.3%
CCOc1ccc(CNC(=O)C2CCN(c3nnc(-n4cccc4CNc4ccc(C)cc4)s3)CC2)cc1OC -5.32%
Cc1cccc(-c2nc(S(=O)(=O)c3ccc(F)cc3)c(N3CCN(c4ccccc4)CC3)o2)c1 5.46%
CCOC(=O)c1c(C)[nH]c(CCC(=O)NCCCN2CCN(c3ccc(F)cc3)CC2)c1C 0.229%
CCOC(=O)c1ccccc1NC(=O)Cn1cc(C(=O)c2cccc(OC)c2)c(=O)c2ccc(C)nc21 2.73%
COc1cc2c(cc1OC)C(COc1ccccc1OC)N(C(=O)CC(C)C)CC2 (centres undefined) -8.36%
CCc1ccc(N=C2NC(=O)CC(C(=O)Nc3ccc(OC)cc3)S2)cc1 (centres undefined) -1.39%
O=C(CN1C(=O)COc2ccc(S(=O)(=O)N3CCCCCC3)cc21)NCc1ccc(Cl)cc1 -0.384%
Cc1cc(=O)[nH]c2nnc(SCC(=O)NC(C)(C)C)n12 -5.52%
CCc1c(C)sc2c1CCN(Cc1cccc(F)c1)C2c1ccccc1 (centres undefined) 21.1%
CCc1ccc(-c2cn3c(n2)sc2cc(C(=O)NC4CCCCCC4)ccc23)cc1 1.38%
CC(=O)N1CCc2cc(CNS(=O)(=O)c3ccc(F)cc3)ccc21 -10.9%
Cc1ccc(S(=O)(=O)c2nc(-c3ccccc3F)oc2N2CCCCC2)cc1 -1.93%
Cc1ccc(-c2cc(C(=O)NCc3cnn(C)c3C)c3cc(Br)ccc3n2)cc1 8.78%
Cc1ccc(NC2=C(c3ccc(C(F)(F)F)cc3)C(=O)c3ccccc32)cc1C -1.39%
CC(=O)Nc1ccc(C(=O)CSc2nnc(-c3ccccc3)n2-c2ccccc2)cc1 -3.35%
COc1ccc(CCN2C(=O)c3oc4cc(C)cc(C)c4c(=O)c3C2c2ccc(F)cc2)cc1OC (centres undefined) 3.66%
COc1ccccc1N1CCN(C(=O)c2ccc(CS(=O)c3ccccc3C)o2)CC1 (centres undefined) 10.3%
O=C(NCC(c1cccnc1)N1CCc2ccccc2C1)c1ccc(F)c(F)c1 (centres undefined) 8.86%
O=C(Nc1ccc(Cl)cc1)C1CCN(c2nc3ccccc3nc2C(F)(F)F)CC1 -14.8%
O=C(NC1CC1)c1ccc(Cn2c(SCc3cccc(F)c3)nc3cccnc32)cc1 -3.78%
Cn1cc(S(=O)(=O)c2cccc(Cl)c2)c(=O)c2cc(F)c(N3CCCCCC3)cc21 -6.03%
Cc1ccc(C(=O)N2CCc3cc(CNS(=O)(=O)c4ccc(Cl)s4)ccc32)cc1 -1.66%
CCOc1ccc(NC(=O)c2ccc3c(SCC(=O)O)c4c(nc3c2)CCCC4)cc1 40%
CC1=C(C(=O)Nc2ccc(C)cc2C)C(c2ccccc2[N+](=O)[O-])n2ncc(C(=O)Nc3ccccc3)c2N1 (centres undefined) -31.7%
CCOC(=O)C1CCCN(C(=O)c2ccc3c(c2)N(Cc2ccccc2)C(=O)c2ccccc2S3(=O)=O)C1 (centres undefined) -3.76%
Fc1ccc(-c2nc(Nc3ccc(F)c(Cl)c3)nc3c2COc2ccccc2-3)cc1 11.6%
Cn1cc(S(=O)(=O)c2ccc(Cl)cc2)c(=O)c2cc(F)c(N3CCCCCC3)cc21 -6.77%
Cc1ccc(NC(=O)CCSCCc2ccccn2)cc1 0.286%
O=C(COc1ccccc1F)Nc1ccc(C(=O)OCc2cc(=O)n3nc(C4CC4)sc3n2)cc1 -9.65%
Cc1ccn2c(c1)nc(=O)c1cc(S(=O)(=O)N3CCC(C)CC3)c(Cl)cc12 -7.13%
O=C(Nc1ccc(Cl)cc1)C1CCN(c2nc3ccccc3n3cccc23)CC1 -9.81%
CC(C)(C)OC(=O)N1CCC(c2c(C(=O)NCc3ccc4c(c3)OCO4)cnn2-c2ccc(F)cc2F)CC1 -13.1%
CCC(Oc1ccccc1F)C(=O)Nc1c(C(=O)c2ccccc2)oc2ccccc12 (centres undefined) -7.4%
CCC(C(=O)Nc1cccc(-c2cn3cccnc3n2)c1)c1ccccc1 (centres undefined) -5.07%
Cc1ccc(-c2noc(CN(C3CCCCC3)S(=O)(=O)c3ccc(C)cc3)n2)cc1 -7.95%
Cc1nn(-c2ccc3nncn3n2)c(C)c1CCC(=O)Nc1ccc(OC(F)(F)F)cc1 19.2%
COc1cc(C(=O)NCC(c2cccnc2)N2CCN(c3ccc(F)cc3)CC2)cc(OC)c1OC (centres undefined) 1.45%
Cc1cccc(-c2nc3c(C#N)c[nH]n3c2NC2CCCCC2)c1 -0.994%
COc1ccc(CCNC(=O)NCc2noc3ccccc23)c(OC)c1 -3.86%
CC1=C(C(=O)Nc2ccc(C)cc2C)C(c2ccccc2C)n2ncnc2N1 (centres undefined) -9.92%
CN(C)c1ccc(C(CNS(=O)(=O)c2ccc(Cl)cc2)N2CCCC2)cc1 (centres undefined) -1.88%
CC(C)NCC(O)c1ccc(NS(C)(=O)=O)cc1 (centres undefined) -13.4%
COc1cccc(-c2nnc3n(Cc4ccc(F)cc4)c(=O)c4ccccc4n23)c1 11.1%
COc1ccccc1CNC(=O)C1CCN(Cc2nc(-c3ccc(OC)c(OC)c3)oc2C)CC1 4.08%
Cc1ccccc1CNC(=O)c1ccc(-n2c(C)cc3c2CCCC3)cc1 -26.9%
CO[C@H]1C=CC=C(C)C(=O)NC2=CC(=O)C(NCCN(C)C)=C(C[C@@H](C)C[C@H](OC)[C@@H](O)[C@@H](C)C=C(C)[C@@H]1OC(N)=O)C2=O -6.53%
Cc1ccc(OCCn2c(-c3ccc(Cl)cc3)nc3ccccc3c2=O)c(C)c1 -15.7%
COCCNC(=O)c1ccc(Cn2c(SCC(=O)NC(C)C)nc3ccccc3c2=O)cc1 -6.81%
CCCN(C(=O)c1cc2c(Cl)nc3ccccc3c2s1)c1cccc(C)c1 -9.35%
CCOc1ccccc1-c1nnc(SCc2ccc(Cl)cc2)o1 12.5%
COc1ccc(OC)c(NC(=O)c2csnn2)c1 -1.96%
CC1=C(C(=O)Nc2ccc(C)cc2C)C(c2sccc2C)n2ncnc2N1 (centres undefined) 6.09%
COc1ccc(-n2c(SCC(=O)N3CCC(C)CC3)nc3c([nH]c4ccccc43)c2=O)cc1 2.51%
COc1ccc(-c2cc3nc(C4CCN(C(=O)OC(C)(C)C)CC4)c(C(=O)Nc4cc(Cl)cc(Cl)c4)cn3n2)cc1 -14.8%
COc1ccc(CNC(=O)c2ccc3c(c2)N(Cc2ccccc2)C(=O)c2ccccc2S3(=O)=O)cc1 -31.2%
CCOc1ccccc1N(C)C(=O)c1nn(-c2ccc(C)cc2)c(=O)c2c1c1ccccc1n2C -0.373%
Cc1ccc2occ(CC(=O)Nc3nnc(C(C)C)s3)c2c1 1.12%
O=C(Nc1nnc(S(=O)(=O)N2CCCc3ccccc32)s1)c1ccccc1Br -2.52%
CCOc1cccc(C2c3c(oc4ccccc4c3=O)C(=O)N2c2nc(C)c(C(=O)OC)s2)c1 (centres undefined) 3.99%
COc1ccc2cccc(CCNC(C)=O)c2c1 6.84%
Cc1ccc(NC(=O)Cn2c(CCC(=O)O)ccc2-c2cccs2)cc1 8.52%
COc1cccc(N2CCN(c3nc4ccc(C(=O)c5ccccc5)cc4n4c(C)nnc34)CC2)c1 -3.89%
